Whole data set: some 110,000 compounds, median “z-score” near -0.1, cut for the highest 2% near 2. Some of the results follow. Activity calls are given as the source filed them.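 The calls were made as follows: active = z-score in the third read window above 3 or below -3; inactive = the rest.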

In the assay the target is Metabotropic glutamate receptor 8 (Rattus norvegicus) (UniProt P70579). The experiment in a line: mGluR8 Gi/Go-coupled signaling modulation – cell-based, rat, thallium flux, HTS, primary screen (AID 488969). The conditions noted are these: HEK293 rat mGluR8, GIRK (G protein-gated inwardly rectifying potassium channel) thallium flux, FluoZin2; at 10 µM; stronger effect = higher value; submaximal glutamate (EC20) added with thallium.
UniProt P70579, sequence (P70579 whole entry, looked up): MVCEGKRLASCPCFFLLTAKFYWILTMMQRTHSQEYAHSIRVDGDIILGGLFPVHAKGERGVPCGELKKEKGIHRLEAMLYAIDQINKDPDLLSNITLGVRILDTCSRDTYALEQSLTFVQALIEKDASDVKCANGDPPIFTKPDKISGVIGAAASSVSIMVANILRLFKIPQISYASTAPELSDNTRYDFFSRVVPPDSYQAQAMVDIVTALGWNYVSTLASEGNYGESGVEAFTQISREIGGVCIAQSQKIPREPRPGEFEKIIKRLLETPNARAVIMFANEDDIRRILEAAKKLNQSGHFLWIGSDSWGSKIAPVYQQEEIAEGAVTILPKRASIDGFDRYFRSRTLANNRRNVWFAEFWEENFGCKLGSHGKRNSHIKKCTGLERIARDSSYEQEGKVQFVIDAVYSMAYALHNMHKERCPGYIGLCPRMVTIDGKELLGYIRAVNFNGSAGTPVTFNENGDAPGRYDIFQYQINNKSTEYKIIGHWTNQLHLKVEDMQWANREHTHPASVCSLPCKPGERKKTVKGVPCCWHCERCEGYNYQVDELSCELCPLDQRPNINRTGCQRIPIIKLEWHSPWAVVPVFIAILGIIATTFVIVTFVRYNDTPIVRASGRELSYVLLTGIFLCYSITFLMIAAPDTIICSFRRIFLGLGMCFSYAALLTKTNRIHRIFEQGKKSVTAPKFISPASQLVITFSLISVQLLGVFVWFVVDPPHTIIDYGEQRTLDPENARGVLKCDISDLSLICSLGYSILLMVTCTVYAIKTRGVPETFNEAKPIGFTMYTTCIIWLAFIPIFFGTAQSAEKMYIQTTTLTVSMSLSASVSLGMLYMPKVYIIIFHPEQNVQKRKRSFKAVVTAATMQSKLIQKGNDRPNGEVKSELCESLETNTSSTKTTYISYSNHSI
`O=C(COc1ccc2ccccc2c1)NC1CC1` had a z-score of -0.0157. Compound `CCN(CC)S(=O)(=O)c1ccc2oc(C(=O)NC3CCCc4ccccc43)c(C)c2c1` (stereo not drawn) showed a z-score of -0.242. Compound `O=C(COc1cccc2cccnc12)NCC(F)(F)F` displayed a z-score of 0.409.

`CCc1noc(C)c1C(=O)Nc1nc(-c2cc(C)ccc2C)c(C)s1`: the z-score is -0.199.

With `CC(=O)NNC(=O)CCC(=O)Nc1ccccc1`, the z-score was -0.0343. `O=C(NC(C(=O)O)c1ccccc1)c1ccc(S(=O)(=O)N2CCOCC2)cc1` (stereo not drawn) yielded a z-score of -0.0595. On to `COc1ccc(/C=C/c2nc(N)nc(-c3ccccc3O)n2)cc1`, for which the z-score was determined as 0.184. In the case of `Cc1ccc(C(=O)c2cn(-c3ccc(F)c(Cl)c3)nn2)cc1` it was -0.0467; in that of `COc1ccc(OCCC(=O)Nc2cc(C)on2)cc1`, -0.194. `COc1cccc(CN2CCN(C(=O)c3ccc(-c4ccccc4)cc3)CC2)c1` gave a z-score of -0.132.

Regarding `CCN(CC)C(=O)Cn1c(=O)n(-c2ccccc2)c(=O)n1CC(=O)N(CC)CC`, the z-score was -0.312. Turning to `Cc1cccc(NC(=O)CSc2ccc(-c3ccco3)nn2)c1`, the z-score is -0.359. Under `CC1(C)CC(=O)C=C(NNC(=O)c2ccc(N)cc2)C1` stands -0.139. Turning to `Cc1nc2ccccc2c(=O)n1NC(=O)c1ccc(F)cc1Cl`, the z-score was found to be 0.00649.

As to `Cc1nnc(NC(=O)c2ccc3c(c2)C(=O)N(CC2CCCO2)C3=O)s1` (stereo not drawn), the z-score is 0.56. The compound `O=[n+]1cc(-c2ccc(Cl)cc2)n([O-])c2c1CCCCC2` showed a z-score of 0.282. `CN(C)CCC(=O)NCC1OCCc2ccccc21` (stereo not drawn) showed a z-score of -0.0528. Under `C=COCCNC(=O)C(=O)NCC(C)C` stands -0.36; under `N#CCC(CNc1ncc(C(F)(F)F)cc1Cl)OC(=O)c1c(F)cccc1F` (stereo not drawn), -0.143; under `CC(=O)c1ccc(S(=O)(=O)Nc2cccc(S(=O)(=O)NC3=NCCC3)c2)cc1`, 0.128. Consider `O=C1/C(=N\O)Cc2ccccc21`, for which the z-score was -0.171. Compound `Cc1nn(-c2ccc(F)cc2)c(Cl)c1/C=C(\CC(=O)O)c1nc2ccccc2s1` had a z-score of -0.0248. Compound `c1ccc2sc(NC3=NCN(C4CCCCC4)CN3)nc2c1` displayed a z-score of -0.12.

As to `O=c1[nH]c(CN2CCCCC2)nc2c1C1(CCCC1)Cc1ccccc1-2`, the z-score was found to be 1.19. Under `Cc1[nH]n(-c2ccc(Cl)cc2)c(=O)c1C=NC12CN3CN(CN(C3)C1)C2` stands -0.111; under `Cc1cc(S(=O)(=O)NCCCN2CCOCC2)ccc1F`, -0.474; under `Cc1nc(N)sc1C(=O)N/N=C/c1ccco1`, -0.216. `Cc1ccc(OCCCC(=O)Nc2ccc(Br)cc2)cc1` returned a z-score of -0.235.

In turn, `CCCOc1cc(C)c(Cl)cc1S(=O)(=O)N(CC)CC` yielded a z-score of -0.466.

On to `O=C(Nc1ccc(N2CCOCC2)c(Cl)c1)c1ccc(F)cc1`, for which the z-score was -0.0435. In the case of `O=C(Nc1ccc(Cl)c(Cl)c1)OCc1cncs1` it was -0.767. Under `CC(=O)N/N=C/c1ccc(OCCOc2ccc(Br)cc2)cc1` stands -0.00368; under `CCN(CC)C(=O)N1CCN(S(=O)(=O)c2ccc(C)c(C)c2)CC1`, -0.245.

`N#Cc1cn(CC(=O)N2CCCc3ccccc32)c2ccccc12` yielded a z-score of -0.701. `CC(C)(C)OC(=O)N[C@@H](Cc1c[nH]c2ccccc12)c1nnc(SCC(N)=O)o1` came in with a z-score of -0.161. For `Cc1sc2nc3c(C(=O)N4CCN(c5ccccn5)CC4)cccn3c(=O)c2c1C`, the z-score was -0.411.

The compound `Cc1cccc2cc(C#N)c(SCC(=O)NNC(=O)Cc3ccccc3)nc12` gave a z-score of -0.161. Take `CCCn1c(N2CCC(Cc3ccccc3)CC2)nc2c1c(=O)[nH]c(=O)n2C`: the z-score is -0.364.

`COc1ccc(OC)c(CN2CCCC(CO)C2)c1` (stereo not drawn): the z-score is -0.533.

The compound `Cc1ccc(CN2CC(C(=O)O)CC2=O)cc1` (stereo not drawn) gave a z-score of -0.155.

For the compound `CCCCCc1nnc(N)s1`, the z-score worked out at 0.176. Under `Cc1ccc2c(SCC(=O)NCc3ccco3)nc(-c3ccc(F)cc3)nc2c1` stands -0.411; under `Cc1cccc(NC(=S)NCCc2c[nH]c3ccccc23)c1`, 0.201. `CCCOC(=O)CN1C(=O)c2ccc(C(=O)OCCC)cc2C1=O` gave a z-score of -1.4.

`O=C(Nc1ccccc1N1CCOCC1)c1ccccc1NS(=O)(=O)c1ccc(F)cc1` gave a z-score of -0.112. Take `O=C1c2ccccc2COc2ccc(O)cc21`: the z-score is 0.201. Turning to `Cn1cccc1/C=C1\SC(=S)N(NC(=O)c2ccccc2)C1=O`, the z-score was determined as 0.205. In the case of `Cc1ccc(N2CN=c3s/c(=C\c4cccnc4)c(=O)n3C2)cc1` it was 0.209.

`COc1cccc(NC(=O)CSc2nnc(CN3CCOCC3)n2C)c1` registered a z-score of 0.89. For the compound `Cc1ncc([N+](=O)[O-])n1CCOC(=O)c1ccc(Cl)cc1Cl`, the z-score is -0.221. For `CCC(C)NC(=O)CCSCCC(=O)NC(C)CC` (stereo not drawn), the z-score stood at 0.331.

Regarding `CCOc1ccc(/C(O)=C2/C(=O)C(=O)N(CCOCCO)C2c2ccccn2)cc1` (stereo not drawn), the z-score worked out at 0.208. `O=C(NC(Cc1c[nH]c2ccccc12)c1nnc2n1CCCCC2)c1ccccc1Cl` (stereo not drawn) registered a z-score of 0.246.

`Cc1cccc2cc(C#N)c(SCC(=O)NCc3cccs3)nc12` displayed a z-score of -0.979.

Turning to `C=CCN=C(NC#N)SCc1ccccc1`, the z-score was -0.0394. In turn, `COc1ccc(NC(=O)CSc2nc3c(c(-c4cccs4)c2C#N)CN(C)CC3)cc1OC` registered a z-score of -0.342. `Cn1cnnc1SCC(=O)c1ccc2c(c1)OCO2` showed a z-score of -0.0967. Under `N#C/C=C(/N)N1CCN(c2ccc(Cl)c(Cl)c2)CC1` stands 0.375; under `O=C1c2ccccc2C(=O)N1CC(=O)N1c2ccccc2CCc2ccccc21`, 0.145. Consider `O=C1c2ccccc2NC(c2ccc(-c3cccc(Cl)c3)o2)N1O` (stereo not drawn), for which the z-score was found to be 2.57. The compound `Cc1noc(C)c1COc1ccc(C(=O)OCC(=O)NC23CC4CC(CC(C4)C2)C3)cc1` displayed a z-score of -0.1. Under `CCN(c1ccccc1)S(=O)(=O)c1ccc(NCC2COc3ccccc3O2)nc1` (stereo not drawn) stands -0.478; under `O=C(Nc1cnc2sc3c(n2c1=O)CCCC3)c1ccc(F)cc1`, -0.413.

As to `Cc1cccc(C)c1NC(=O)C1NC(=O)CC1c1ccccc1` (stereo not drawn), the z-score was -0.192. The compound `COc1ccccc1C(=O)N(NC(=O)Oc1ccccc1)C(C)(C)C` displayed a z-score of 0.266. With `COc1ccc(NC(=O)c2csc(Cc3ccccc3)n2)cc1`, the z-score is -0.31. Turning to `Cc1ccc(-c2nc3c(c(=O)c4ccccc4n3C)c(=O)n2-c2ccccc2)cc1`, the z-score was -1.09. The compound `CCN(CC)c1ncnc2scc(C3COc4ccccc4O3)c12` (stereo not drawn) gave a z-score of 0.0186.

As for `COc1cc(NC(=O)CN2C(=O)c3ccccc3S2(=O)=O)c(OC)cc1Cl`, the z-score was -0.144.

The compound `CC(=O)Nc1ccc(S(=O)(=O)NNC(=O)CCC(=O)Nc2cc(C)ccc2C)cc1` yielded a z-score of -0.368.

Regarding `CCOC(=O)C1=NN(C(=O)c2ccccc2)C(O)(c2ccc(C)cc2)C1` (stereo not drawn), the z-score was active: 10.5. In turn, `COc1ccc(C(=O)Nc2ccc(S(=O)(=O)N3CCCCC3)cc2)cc1OC` had a z-score of -0.152. `CC(/C=C/c1ccc(C)o1)=C\C(=O)O` registered a z-score of 0.682.

For the origin of these results see PubChem BioAssay AID488969 (Vanderbilt High Throughput Screening Facility, 2010).
